Measurements from PubChem BioAssay AID686979 (National Center for Advancing Translational Sciences (NCATS), 2013).
Out of some 420,000 compounds screened, about 50,000 (12%) were called active. The shares of active, inactive and inconclusive entries below differ from those in the screen. The call rests on the fitted dose curve; in most records, active means well fitted inhibition curve with a large enough effect; inconclusive means small, poorly fitted or top-dose-only effect; inactive means flat fitted curve, though single readings scatter. Potencies of inconclusive entries are left out as doubtful fits.

Test: qHTS for Inhibitors of human tyrosyl-DNA phosphodiesterase 1 (TDP1): qHTS in cells in presence of CPT; further: nearly all actives have a fitted effect of over 55% in size
Conditions: chicken DT40 Tdp1-/-;hTDP1 cells + 20 nM CPT, ATP luminescence, 48 h; activity change, negative = growth inhibition: at 46.2 µM (top of the series) unless noted
Outline: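 Chicken DT40 Tdp1-/- cells complemented with human TDP1, 400 cells/well, exposed to compounds plus 20 nM camptothecin for at least 48 h at 37 C; viability read as ATP content by CellTiter-Glo luminescence.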
On the % scale 0 is the no-effect control and ±100 the full control effect; potency means the concentration at half of the fitted maximal effect; tags describe the fitted curve by direction and shape.

Structure (SMILES)	Potency	activity change, negative = growth inhibition
O=C1c2ccccc2C(=O)C12OC2c1cccc2ccccc12 (stereo unspecified)	inconclusive [inhibitor, single point]	–
Cc1ccc(NC(C)c2cc(Cl)ccc2O)cc1 (stereo unspecified)	–	inactive: -18.2%
CCOC(=O)C1CCCCN1S(=O)(=O)c1ccc2c(c1)CC(C)N2C(=O)C1CCC1 (stereo unspecified)	active: 23.1 µM	–
COc1cccc(C2=NS(=O)(=O)N(C)C(C(=O)Nc3cccc(O)c3)=C2)c1	active: 14.6 µM	–
CCc1ccc(Nc2nnc(SC3CCOC3=O)s2)cc1 (stereo unspecified)	–	inactive: -16.8%
CCN(CC)C(=O)C1c2ccccc2Oc2ccccc21	inconclusive [inhibitor, single point]	–
O=C(CCCCCn1c(=S)[nH]c2ccc(N3CCOCC3)cc2c1=O)NCc1ccccc1	–	inactive: 2.49%
Cc1ccc(CSc2nnc(SCC(=O)N/N=C/c3ccccc3OCC(=O)O)s2)cc1	inconclusive [inhibitor, single point]	–
COc1ccc(-c2nnc3ccc(SCC(=O)N4CCCC4)nn23)cc1	inconclusive [inhibitor, partial curve, poor fit]	–
CN(CC(=O)Nc1ccc2c(c1)OCCO2)Cc1nc2ccccc2c(=O)[nH]1	inconclusive [inhibitor, single point]	–
O=c1c2ccccc2nc(COc2ccccc2)n1/N=C/c1c[nH]c2ccccc12	inconclusive [inhibitor, single point]	–
CCc1cc(C(=O)N(C)CC(=O)N(CC(C)C)c2c(N)n(CC(C)C)c(=O)[nH]c2=O)sc1C	–	inactive: 0.599%
COc1ccc(CC(=O)Nc2ccc(-c3nc4ccccc4s3)cc2Cl)cc1	inconclusive [inhibitor, single point]	–
Cc1ccc(NC(=O)COC(=O)c2cccc3c2C(=O)c2ccccc2C3=O)c(C)c1	inconclusive [inhibitor, single point]	–
CCC(C(=O)OCC(=O)Nc1ccc(C)c(S(=O)(=O)N2CCOCC2)c1)c1ccccc1 (stereo unspecified)	active: 11.6 µM	–
Cc1ccc(S(=O)(=O)N2CC3(O)CN(C(=O)OC(C)C)N(C(=O)OC(C)C)CC3(OC(=O)NC3CC3)C2)cc1 (stereo unspecified)	inconclusive [inhibitor, single point]	–
COc1ccc(C(=O)NCCN2CCOCC2)cc1[N+](=O)[O-]	–	inconclusive: -1.85% [inhibitor]
CCN(CC)Cc1ccc(Nc2ccnc3cc(Cl)ccc23)cc1O	active: 7.31 µM	–
Cc1cc(NC(=O)C2CCCN(S(=O)(=O)c3ccc(Br)s3)C2)ccc1Br (stereo unspecified)	inconclusive [inhibitor, single point]	–
COc1ccc(OC)c(N(C(=O)c2ccco2)C(C(=O)NC2CCCC2)c2ccc(N3CCOCC3)cc2)c1 (stereo unspecified)	–	inactive: 1.52%
COc1ccc([C@@]23Oc4cc(OC)cc(OC)c4[C@]2(O)[C@H](O)[C@H](C(=O)N(C)C)[C@H]3c2ccccc2)cc1	active: 0.0073 µM	–
CCc1nc(C)cn1S(=O)(=O)c1cc(C)c(OC)cc1C	–	inactive: -27.7%
Cc1cc(C(=O)O)ccc1NCc1cccnc1	–	inactive: 7.5%
COC(=O)c1cc(N/C(N)=N/c2nc(C)cc(C)n2)cc(C(=O)OC)c1	inconclusive [inhibitor, single point]	–

Structure (SMILES)	Potency	activity change, negative = growth inhibition
C=Cn1cc(CNC[C@H]2O[C@@H](n3cc(C)c(=O)[nH]c3=O)C[C@@H]2O)c(C)n1	–	inactive: 8.12%
Cc1cc(NC(=O)CN2C(=O)NC(C)(c3ccc(Cl)cc3)C2=O)no1 (stereo unspecified)	–	inactive: -5.12%
CCOC(=O)C1=C(O)C(=O)N(c2ccc(S(N)(=O)=O)cc2)C1c1ccc([N+](=O)[O-])cc1 (stereo unspecified)	inconclusive [inhibitor, single point]	–
COC(=O)[C@@]1(Cc2ccc(F)cc2)[C@H]2c3cc(C(=O)N(C)C)n(Cc4ccc(OC)c(OC)c4)c3C[C@H]2CN1C(=O)c1ccccc1	inconclusive [inhibitor, single point]	–
CCc1ccc(NC(=O)N(Cc2c[nH]c3ccccc23)C2CCCCCC2)cc1	active: 20.6 µM	–
O=C(CCCC1=NS(=O)(=O)c2ccccc2N1)N1CCN(c2ccc([N+](=O)[O-])cc2)CC1	–	inactive: 1.6%
COc1ccc([C@H]2CC(=O)C=C(c3cc(OC)ccc3OC)C2)cc1	active: 13 µM	–
CCOc1ccc(OCC)c(NC(=O)C2CCN(S(=O)(=O)c3c(C)[nH]c(=O)[nH]c3=O)CC2)c1	active: 18.4 µM	–
O=C(NCc1ccccc1)C(=O)NCC(c1ccco1)S(=O)(=O)c1ccccc1 (stereo unspecified)	–	inactive: -4.79%
NS(=O)(=O)c1ccc(NC(=O)CNC(=O)c2ccc3c(c2)OCO3)cc1	–	inactive: 16.4%
O=C(c1sccc1-c1ccccc1)N1CCN(S(=O)(=O)c2ccccc2F)CC1	active: 14.6 µM	–
Cc1ccccc1C(=O)N1CCc2c(cnc(C)c2CNC(=O)c2ccc3c(c2)OCO3)C1	–	inactive: 6.17% [at 9.04 µM]
CCCN(CCC)c1nn2c(=O)c(C(=O)NCc3cccc(OC)c3)cnc2s1	inconclusive [inhibitor, single point]	–
CCCCNC(=O)c1onc(CSc2ccccn2)c1C(=O)NCCCC	inconclusive [inhibitor, single point]	–
Cc1onc(-c2ccccc2Cl)c1C(=O)Nc1nc2ccc(S(C)(=O)=O)cc2s1	active: 8.2 µM	–
Cc1noc(C)c1COC(=O)c1csc2c1CCC(C)C2 (stereo unspecified)	–	inactive: -29.4%
Cc1cc2nn(-c3ccc(F)cc3)nc2cc1NC(=O)c1cc(Cl)ccc1Cl	inconclusive [inhibitor, full curve, poor fit]	–
Nn1c(SCc2ccccc2)nc2c(cnn2-c2ccccc2)c1=O	inconclusive [inhibitor, single point]	–
Cc1ccc(NC(=O)C2(NC(=O)c3ccccn3)CCCCC2)cc1Br	active: 20.6 µM	–
CCN(CC)c1nc2ccccc2nc1C(C#N)C(=O)NCCCOC (stereo unspecified)	inconclusive [inhibitor, single point]	–
COc1ccc([N+](=O)[O-])cc1NC(=O)C(C)OC(=O)CN1C(=O)C2CC=CCC2C1=O (stereo unspecified)	–	inactive: 7.9%
CC(C)CN(C(=O)c1ccco1)c1nc2ccccc2s1	–	inactive: -14.9%
COc1cccc(C(O)c2nc(-c3cc(F)cc(F)c3)cs2)c1 (stereo unspecified)	active: 20.6 µM	–
COC(=O)c1ccc(Cn2nc(-c3ccccc3)ccc2=O)cc1	–	inactive: -4.36%

Structure (SMILES)	Potency	activity change, negative = growth inhibition
Cc1cccc(N2CCN(C(=O)CCS(=O)(=O)c3ccc4c(c3)NC(=O)CO4)CC2)c1C	inconclusive [inhibitor, single point]	–
O=C(NCCOc1ccccc1)N1[C@H]2CC[C@@H]1C=C(c1ccc(F)cc1OCc1ccccc1)C2	inconclusive [inhibitor, single point]	–
Cc1noc(C)c1C(=O)OC(C)C(=O)c1c[nH]c2ccccc12 (stereo unspecified)	inconclusive [inhibitor, single point]	–
COCCN1C=C2C(=O)C(C)(OC(=O)C3CCCC3)C(=O)C(c3ccccc3)=C2C=C1CCCC(=O)OC (stereo unspecified)	inconclusive [inhibitor, single point]	–
O=C(O)c1cc([N+](=O)[O-])ccc1N1CCC(Cc2ccccc2)CC1	–	inconclusive: -22.9% [inhibitor]
O=C(Nc1cccc(Cl)c1)C1CCCN(c2cnccn2)C1 (stereo unspecified)	–	inactive: -16.5%
CCN1CCC(O)(/C=C/c2ccc(C(C)C)cc2)C(C(=O)/C=C/c2ccc(C(C)C)cc2)C1 (stereo unspecified)	active: 14.6 µM	–
CCn1ncc(C2=NOC(C(=O)Nc3cccc(C(C)=O)c3)C2)c1C (stereo unspecified)	inconclusive [inhibitor, partial curve]	–
Cc1ccc(C)c(CSc2nnc(-c3cccnc3)o2)c1	inconclusive [inhibitor, partial curve]	–
Brc1ccc(C2=Nc3cccc4cccc(c34)N2)o1	active: 6.51 µM	–
N#C/C(=C\c1ccc(O)c(O)c1)C(=O)Nc1ccccc1	active: 23.7 µM	–
N#CC(=Cc1ccccn1)c1nc(-c2ccc(Cl)cc2)cs1	inconclusive [inhibitor, single point]	–
CN(C)c1ccc(CNC(=O)C2(C)Cc3c(-c4ccc5c(c4)OCO5)ccnc3O2)cc1 (stereo unspecified)	active: 4.61 µM	–
CCCCCCCCCCCCCCCC[n+]1ccc(/C=C/c2c[nH]c3ccccc23)c2ccccc21	active: 5.01 µM	–
COc1ccc(NC(=O)c2cc3c(=O)n(C)c4ccccc4c3n2C)cc1Cl	inconclusive [inhibitor, single point]	–
COc1ccc(Cl)cc1NC(=O)CSc1nnc(C)n2c1cc1occc12	inconclusive [inhibitor, single point]	–
O=[N+]([O-])c1ccc(Nc2nc(NCCO)nc(N3CCCC3)n2)cc1	–	inconclusive: -34.3% [inhibitor]
O=C(CCCN1C(=O)c2cccc3cccc(c23)C1=O)N1CCN(c2ncccn2)CC1	inconclusive [inhibitor, single point]	–
COC(=O)C1=C(C)N=C2SC(C)C(=O)N2C1/C=C/c1ccccc1 (stereo unspecified)	–	inactive: -1.89%
NC(=O)c1nc(C(=O)N2CCCCC2)c2ccccc2n1	inconclusive [inhibitor, single point]	–
Cc1nc2ccc(NC(=O)c3ccccc3)cc2c(=O)n1Cc1ccc(F)cc1	inconclusive [inhibitor, single point]	–
CCOC(=O)C1(CCCc2ccccc2)CCN(C(=O)C2=C(C)OCCO2)CC1	inconclusive [inhibitor, single point]	–
CCOC(=O)c1cc2cc3ccccc3cc2[nH]1	inconclusive [inhibitor, partial curve]	–
